{
  "source": "PubChem BioAssay (NCI)",
  "note": "Where “and” joins values, the source holds several entries; their conditions need not be identical. Identical values can stand only once.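 All cell lines were grown in 96-well plates and treated with compound for 48 hours. GI50 marks 50% less growth. TGI is the concentration that stops growth completely.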",
  "data": [
    {"system": "NCI-H322M lung", "assay": "DTP human tumour cell line panel, 48 h", "units": {"TGI": "µM"}, "values": [
      {"smiles": "N#CC(C(=O)C(=O)Nc1ccc(Cl)c(Cl)c1)c1ccc(Cl)cc1", "note": "(centres undefined)", "TGI": "> 100"},
      {"smiles": "Cc1cc2c(=O)c3ccccc3oc2c(C#N)c1C", "TGI": "> 100"},
      {"smiles": "Cc1ccc(Cc2nn(C)c(=O)n2-n2cccc2)cc1", "TGI": "> 100"},
      {"smiles": "COc1cc2c(cc1OC)CN1CCc3ccccc3CC1C2", "note": "(centres undefined)", "TGI": "> 100"},
      {"smiles": "Cc1cn2c(/C=N/N=C(N)N)c(-c3cc(Cl)sc3Cl)nc2s1", "GI50": "0.872 µM", "TGI": 2.86},
      {"smiles": "COC(=O)C1=C(C)N(NC(=O)c2cccc(Cl)c2)C(C)(O)C12CCOC2=O", "note": "(centres undefined)", "TGI": "> 100"},
      {"smiles": "O=C(Nc1ccc(Cl)cc1F)c1cc(Cl)ccc1O", "GI50": "0.329 µM"},
      {"smiles": "C=CCN(c1cc(OCc2ccccc2)c2c(c1)c(C)cn2S(=O)(=O)c1ccccc1)S(C)(=O)=O", "TGI": "> 100"},
      {"smiles": "COc1ccc(NC(=O)CC(=O)n2nc(-c3ccccc3)c(N=Nc3ccccc3C)c2-c2ccccc2)cc1", "TGI": "> 100"},
      {"smiles": "O=c1nc(-c2ccccc2)scc1-c1ccccc1", "TGI": "> 100"},
      {"smiles": "N#Cc1nc(C2SCCCS2)oc1N", "TGI": "> 100"},
      {"smiles": "CN1CCc2cc(O)c3cc2C1Cc1ccc(cc1)Oc1cc(ccc1O)CC1c2c(cc4c(c2O3)OCO4)CCN1C", "note": "(centres undefined)", "TGI": "> 100"},
      {"smiles": "Cc1cn(CCCCOC(=O)NC(CCCNC(N)=O)C(=O)O)c(=O)[nH]c1=O", "note": "(centres undefined)", "TGI": "> 100"},
      {"smiles": "O=c1[nH]c(=O)n(C2OC(CO)C(O)C2O)cc1OCc1ccccc1", "note": "(centres undefined)", "TGI": "> 100"},
      {"smiles": "O=C1CCCCCCCCCCC1CN(Cc1ccccc1)Cc1ccccc1", "note": "(centres undefined)", "TGI": "> 100"},
      {"smiles": "COc1cc(C(=O)Nc2cc(O)c(C/C=C(\\C)CCC=C(C)C)c(O)c2)cc2c1O[C@]1(C)CC[C@@H](O)C(C)(C)[C@H]1C2", "GI50": "5.83 µM and 3.11 µM", "TGI": 17.1},
      {"smiles": "C[C@]12CC/C(=N\\OC(=O)Nc3ccccc3)C=C1CC[C@@H]1C2CC[C@@]2(C)C1CC[C@@H]2OC(=O)Nc1ccccc1", "note": "(some centres undefined)", "TGI": "> 100"},
      {"smiles": "CN(C)c1ccc(/C=C2\\N=C(c3ccccc3)N(/N=C3\\C(=O)Nc4ccccc43)C2=O)cc1", "TGI": "> 100"},
      {"smiles": "Cc1ccc2nc(CC(=O)c3ccc4ccccc4c3)c(=O)[nH]c2c1", "TGI": "> 100"},
      {"smiles": "CC(=O)NC(CCCOC(C)=O)C(=O)NC(CCCOC(C)=O)C(=O)NC(CCCOC(C)=O)C(=O)NC(Cc1ccc([N+](=O)[O-])cc1)C(=O)NCC(=O)OCc1ccccc1", "note": "(centres undefined)", "TGI": "> 100"},
      {"smiles": "COC(=O)C1=C(OC(=O)/C(=C/c2c(F)cccc2F)c2ccccc2)C(C(=O)OC)[C@@]2(O)[C@@H](C(=O)OC)[C@H](C)C[C@@H]1[C@@H]2C(=O)OC", "note": "(some centres undefined)", "TGI": "> 100"},
      {"smiles": "CCCCC/C=C\\C/C=C/CCCCCCCCNC(=O)Nc1ccc([N+](=O)[O-])cc1", "GI50": "49.1 µM", "TGI": "> 100"},
      {"smiles": "COc1cc2c(cc1OC)C1(c3ccccc3)ON=C(c3ccccc3)N1CS2", "note": "(centres undefined)", "TGI": "> 100"},
      {"smiles": "Oc1c2c(c3c4c1N=CC=4CCN=3)C1(C=C(Br)C(O)C(Br)=C1)CCN2", "note": "(centres undefined)", "TGI": 7.58},
      {"smiles": "O=C1C(Cl)=C(Nc2ccccn2)C(=O)c2ccccc21", "GI50": "7.14 µM", "TGI": 20.4},
      {"smiles": "O=C(CC(=O)c1cccc([N+](=O)[O-])c1)C(=O)Nc1nc([N+](=O)[O-])cs1", "TGI": "> 100"},
      {"smiles": "CCCC(=O)[O-].CCCC(=O)[O-].N.N.N.N.[Co+3].[O-][Cl+3]([O-])([O-])[O-]", "TGI": "> 100"},
      {"smiles": "COc1cccc(N2C(=O)[C@H]3[C@H]4CC(C(C)(C)C)CC[C@H]4c4c([nH]c5ccccc45)[C@H]3C2=O)c1", "note": "(some centres undefined)", "TGI": 41},
      {"smiles": "O=C(Nc1ccc(O)c(NS(=O)(=O)c2ccc(F)cc2)c1)c1ccc(-c2ccccc2)cc1", "GI50": "10.4 µM", "TGI": 25.8},
      {"smiles": "COc1ccc2c(c1)c(-c1nc(-c3cn(C)c4ncccc34)cs1)cn2CCCCN1CCOCC1", "GI50": "1.55 µM", "TGI": 3.58},
      {"smiles": "CC(C(=O)N1C(=O)N(C(=O)[C@H](C)C(O)c2ccccc2)[C@H](c2ccccc2)[C@H]1c1ccccc1)[C@@H](O)c1ccccc1", "note": "(some centres undefined)", "TGI": "> 100"},
      {"smiles": "COC(=O)C1CCC[C@H]2C(CO)=C(C)C(=O)[C@@H]12", "note": "(some centres undefined)", "TGI": "> 100"},
      {"smiles": "C=C(CN(C)C)C(=O)c1ccc(OC)cc1", "TGI": 41.8},
      {"smiles": "C/C=C(\\C)C(=O)OC1C2C(C)C(=O)OC2C(O)C(C)C2C=CC(=O)C21C", "note": "(centres undefined)", "TGI": 26.5},
      {"smiles": "COC(=O)CCSC1=CC(=O)c2nc3ccccc3c3ccnc1c23", "TGI": "> 57"},
      {"smiles": "ClCCCC1COc2ccccc2O1", "note": "(centres undefined)", "TGI": "> 100"},
      {"smiles": "CC1=C(c2ccc(C)cc2)NC(=S)C(C)C(c2ccc(C)cc2)=N1", "note": "(centres undefined)", "TGI": "> 100"},
      {"smiles": "O=C(Nn1c(-c2ccccc2)nc2ccccc2c1=O)c1ccc(O)cc1", "TGI": "> 100"}
    ]}
  ]
}
